# The list shows a part of the results. The full chains were built here from the parent and the listed change. Values near 0.05 are background.
# B1: TEV protease; numbered along this chain (parent)
# chain: MGESLFKGPRDYNPISSSICHLTNESDGHTTSLYGIGFGPFIITNKHLFRRNNGTLVVQSLHGVFKVKDTTTLQQHLVDGRDMIIIRMPKDFPPFPQKLKFREPQREERICLVTTNFQTKSMSSMVSDTSCTFPSGDGIFWKHWIQTKDGQCGSPLVSTRDGFIVGIHSASNFTNTNNYFTSVPKNFMELLTNQEAQQWVSGWRLNADSVLWGGHKVFMVKPEEPFQPVKEATQL
# Variants of: B1
# Experiment: raw area under fraction-flipped curve 0-4 h after induction (AUC4h, not background-subtracted), DNA-recorder readout of cleavage of the substrate (dimensionless); higher = more cleavage of the substrate by the protease variant
# Settings: temperature: 34 °C; time window: 0-4 h after rhamnose induction
# Experimental: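 In vivo DNA recorder in E. coli TOP10(DE3) ΔrhaA at 34 °C. Each TEVp single-site mutant (parent TEVp 0) is paired with a single-site variant of the 7-mer TEVs (canonical ENLYFQ|S). The substrate sits between flexible linkers in a Bxb1-sfGFP-TEVs-SsrA fusion, so cleavage stabilises Bxb1 and speeds flipping of a recombination array, read by NGS. The value is the raw area under the fraction-flipped curve over 0-4 h after rhamnose induction (AUC4h), with ≥20 reads per time point. It is not background-subtracted; inactive controls average about 0.047.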
# 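Further: Bxb1 expression induced with 0.2% (w/v) L-rhamnose at OD600 near 0.5, cultures sampled hourly, flipped fraction per protease–substrate barcode pair counted by paired-end Illumina sequencing.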
Variant,area with substrate EALYFQS,area with substrate EILYFQS,area with substrate EMLYFQS,area with substrate ESLYFQS,area with substrate ECLYFQS,area with substrate EDLYFQS,area with substrate EFLYFQS,area with substrate EHLYFQS,area with substrate EKLYFQS,area with substrate ELLYFQS,area with substrate ERLYFQS,area with substrate ETLYFQS,area with substrate EVLYFQS,area with substrate EWLYFQS,area with substrate EQLYFQS,area with substrate EELYFQS,area with substrate EGLYFQS,area with substrate EPLYFQS,area with substrate EYLYFQS
V200R,0.0873,0.12,0.0782,0.103,–,–,–,–,–,–,–,–,–,–,–,–,–,–,–
S201V,0.1,0.119,0.0943,–,0.102,0.136,0.0622,0.0943,0.0827,0.106,0.0891,0.12,0.104,0.0807,–,–,–,–,–
G202E,0.0958,0.0517,0.062,0.0714,0.0597,0.0762,0.0704,0.0793,0.0718,–,0.0809,–,0.0677,–,0.0765,–,–,–,–
W203L,0.0892,0.0438,–,0.0641,0.128,–,–,–,0.0742,0.0581,–,–,–,0.0502,0.15,0.0664,0.0487,–,–
R204A,0.143,0.124,0.15,–,0.131,0.138,0.129,0.141,–,–,0.119,0.12,0.0701,0.106,0.117,0.107,–,0.202,0.12
L205R,0.0658,0.0589,0.0634,0.0737,0.059,–,–,0.0682,–,–,0.0616,0.059,0.0648,0.0531,0.0647,–,0.0551,–,0.0528
N206K,0.087,0.0849,0.0945,–,0.0839,0.0984,–,–,0.0559,–,–,0.0992,–,0.104,0.0763,0.136,0.0947,–,–
A207D,0.127,0.0951,0.129,0.102,0.118,–,–,0.134,0.0949,–,0.116,–,0.106,0.132,0.128,–,0.102,0.122,–
D208G,0.0751,0.0467,0.0804,0.085,0.0588,–,–,0.0872,0.109,–,0.0686,0.081,–,–,–,0.0796,0.0734,–,–
V210F,0.0971,0.0831,–,0.0837,–,0.0827,–,0.0873,0.0999,–,–,–,0.0899,–,–,0.0976,0.0811,0.118,–
V210T,0.0786,0.0599,–,0.0839,0.0708,–,–,0.0892,0.0905,–,–,0.116,0.0788,0.0909,0.0769,–,0.065,0.116,–
L211F,0.102,0.0788,0.109,0.116,0.114,–,–,–,–,0.0833,0.103,–,0.0835,0.0905,0.163,0.0966,0.0804,0.0878,0.12
H215M,0.0986,0.0746,0.107,0.0822,0.0874,–,–,0.103,–,0.0958,–,0.0608,0.0726,–,–,–,–,0.124,–
H215N,0.0498,0.0638,–,–,0.0536,0.0793,–,0.0643,0.0573,0.0552,0.076,–,–,0.0644,0.0506,0.0722,0.0677,–,0.0625
V217G,0.0687,0.0617,–,–,0.061,0.0852,–,0.058,0.0648,–,0.0757,0.0702,0.0592,–,–,–,–,–,–
M219H,0.0976,0.105,0.0799,0.094,0.102,–,–,0.0961,0.092,0.0884,0.0905,–,0.0897,0.0951,0.0958,0.125,–,0.111,–
M219K,0.0665,0.0765,–,0.0687,0.0733,0.0704,–,0.0624,–,0.0539,0.0577,–,0.0663,0.0841,0.0556,0.0741,0.0651,0.084,–
M219P,0.095,0.0598,0.0635,0.0703,0.0518,0.0989,–,0.0849,0.0732,0.0689,0.069,0.0844,0.0661,0.0845,0.057,–,0.06,0.0868,–
V220L,0.126,0.0829,0.107,0.0978,0.0846,0.179,–,–,–,0.0756,0.101,–,0.0934,0.0937,0.103,–,0.0988,–,–
V220Y,0.1,0.0871,0.13,0.0953,0.0914,–,0.0797,–,0.0938,0.0847,0.0899,0.134,0.118,–,0.103,0.122,–,0.0953,0.0944
K221C,0.0968,0.0798,0.0947,0.0879,0.112,–,0.0956,–,0.122,0.0996,0.0917,0.0771,0.112,0.085,0.206,0.105,–,0.108,–
K221H,0.11,0.0769,–,0.105,0.0938,0.111,0.113,–,0.0904,–,0.0872,0.114,0.095,0.088,0.0994,–,–,0.126,–
K221M,0.0918,0.0833,0.107,0.0989,–,0.113,–,0.0991,0.11,0.0648,0.0875,–,–,0.0816,0.0848,0.104,–,0.0728,0.0921
P222N,0.122,0.0861,0.126,0.101,0.0969,0.138,–,0.0841,0.112,0.106,0.0981,–,0.092,–,0.0889,0.13,0.0654,0.118,–
F226S,0.0996,0.0845,0.138,0.102,0.1,0.133,–,–,–,0.1,0.118,0.125,0.0956,0.0879,0.106,–,0.103,–,0.088
Q227R,0.121,–,0.122,0.0937,0.0739,–,–,0.0857,–,–,–,–,0.0917,–,0.111,–,–,0.124,0.0839
Q227Y,0.108,–,–,0.0957,0.115,0.105,–,–,0.0941,0.0897,0.09,0.115,0.122,0.0771,–,–,–,0.11,–

# — the supplement of paper PMC12217912
